This list was built around the results that the source calls inconclusive (neither active nor inactive); the mix of calls is not that of the screen. For some of these results: Potencies beside an inconclusive call are fits to weak or partial responses and may not hold up. Activity calls are given as the source filed them. Unless noted, calls come from the whole dose curve; as a rule, active = well fitted curve in the direction sought with a large enough effect; inconclusive = small, poorly fitted or top-dose-only effect, or another doubt; inactive = no such curve, though single readings can be large; an effect the other way counts as inactive or inconclusive.
Experiments:
[1] = Cell Viability - BJ (AID 421; calls by dose curve;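 note: potency is the fitted concentration of half-maximal effect; cells exposed to compound for 40 hours at 37 °C before readout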); conditions: BJ fibroblast viability, qHTS
How it was run: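 Luminescent ATP signal (CellTiter-Glo, 20 min at room temperature) served as the read-out of viable BJ cells after 40 hours of compound treatment. Responses were scaled between DMSO and 100 uM tamoxifen, and AC50 values were obtained by Hill modeling.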

[2] = Cell Viability - Jurkat (AID 426;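 active = dose-dependent loss of cell ATP signal giving a full or clear fitted curve, ranked by lower potency value; inconclusive = weak partial curve or response only at the top dose; inactive = no loss of viability signal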;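 note: potency is the fitted concentration of half-maximal effect; cells exposed to compound for 40 hours at 37 °C before ATP read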); conditions: qHTS
How it was run: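 Luminescent ATP read-out (CellTiter-Glo, 20 min at room temperature) after 40 hr compound exposure at 37 °C of Jurkat E6-1 cells, 5000/well. Decreased ATP taken as cytotoxicity; AC50 from standard Hill equation.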

[3] = Cell Viability - Hek293 (AID 427;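 active = compounds whose dose-response curve shows a full or clear partial loss of cell viability, called from curve shape rather than a numeric limit; inconclusive = weak partial curves or an effect only at the top dose; inactive = no dose-dependent loss of viability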;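 note: potency is the fitted concentration of half-maximal effect; cells exposed to compound for 40 hours at 37 °C before reading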); conditions: qHTS
How it was run: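 Luminescent ATP read-out (CellTiter-Glo, 20 min RT) after 40 hr compound exposure at 37 °C in complete medium. Signal normalized to DMSO (basal) and 100 uM tamoxifen (100% inhibition); concentration-response fitted with the standard Hill equation to give AC50.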

[4] = Cell Viability - N2a (AID 540); conditions: N2a mouse neuroblastoma cell viability; activity change, negative = cytotoxicity: at 92.2 µM (top of the series);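 note: plate controls were DMSO alone for no effect and tamoxifen control for full effect; nearly all actives have a fitted effect of over 45% in size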
How it was run: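 N2a mouse neuroblastoma, 1500 cells/well, 5 hr settle; compound 40 hr, 37 °C; CellTiter-Glo 20 min RT; luminescence; Hill-fit AC50.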

[5] = Cell Viability - H-4-II-E (AID 543); note: potency is the fitted concentration of half-maximal effect; nearly all actives have a fitted effect of over 35% in size
How it was run: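 qHTS, rat hepatoma H-4-II-E, 1500 cells/well; 40 hr compound exposure, 37 °C; CellTiter-Glo ATP luminescence after 20 min RT; AC50 by standard Hill fit.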

[6] = Cell Viability - Renal Proximal Tubule (AID 545); conditions: renal proximal tubule cells viability, primary cells of rat origin; activity change, negative = cytotoxicity: at 91.7 µM (top of the series); note: nearly all actives have a fitted effect of over 40% in size
How it was run: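 Rat kidney proximal tubule cells, freshly isolated; 1000 cells/well, 5 hr settle, compound 40 hr 37 °C. CellTiter-Glo 20 min RT, luminescence read. AC50 by standard Hill fit.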

[7] = Cell Viability - Mesenchymal (AID 546); conditions: mesenchymal cells viability, qHTS; activity change, negative = cytotoxicity: at 91.7 µM (top of the series);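 note: cells exposed to compound for 40 hours before reading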
How it was run: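 CellTiter-Glo luminescence (intracellular ATP, 20 min room temperature) after 40 hr compound exposure at 37 °C of 1000 glomerulus-derived human kidney mesenchymal cells/well; AC50 values obtained by fitting qHTS concentration-response data to the Hill equation.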

[8] = Cellular Toxicity (caspase-3) SK-N-SH (AID 661); conditions: SK-N-SH caspase-3 activation, qHTS; caspase-3 activation: at 91.7 µM (top of the series), DMSO as zero, staurosporine as full;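 note: cells exposed to compound for 16 hours; 0% = DMSO basal and 100% = 10 µM staurosporine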
How it was run: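 Luminescent Caspase-Glo 3/7 read-out after 16 hr compound exposure of SK-N-SH neuroblastoma cells at 37 °C. Signal increase normalized to DMSO (basal) and 10 uM staurosporine (100%); AC50 from Hill equation fits of qHTS concentration-response data.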

[9] = Cellular Toxicity (caspase-3) H-4-II-E (AID 663); conditions: H-4-II-E rat hepatoma; Potency: caspase-3 activation; caspase-3 activation: at 92.2 µM (top of the series), scaled: DMSO 0%, 100 µM tamoxifen 100%;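 note: cells exposed to compound for 16 hr before readout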
How it was run: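 Caspase 3/7 activation measured by luminescent aminoluciferin substrate cleavage after 16 hr compound treatment of H-4-II-E cells in complete medium. Increase normalized between DMSO (basal) and 100 uM tamoxifen (100%); Hill-equation AC50 from concentration-response.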

[10] = Cellular Toxicity (caspase-3) Hek293 (AID 664); conditions: HEK293 caspase-3 activation, DMSO = 0%, 100 µM tamoxifen = 100%; at 92.2 µM (top of the series);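 note: cells exposed to compound for 16 h at 37 °C before readout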
How it was run: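 Luminescent Caspase-Glo 3/7 readout (aminoluciferin release) in HEK293 cells after 16 h compound treatment, 37 °C. Normalization: DMSO = basal, 100 uM tamoxifen = 100% stimulation. Concentration-response fitted with standard Hill equation for AC50.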

[11] = MultiTox-Fluor Cytotoxicity Assay - LYMP1-001 - Dead Cells (AID 946); conditions: LYMP1-001 lymphoblastoid cells, dead-cell protease fluorescence; cytotoxicity (dead cells): at 92.2 µM (top of the series); note: potency is the fitted concentration of half-maximal effect
How it was run: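 AC50 from Hill fit of concentration-response; data normalized to DMSO (basal) and 15 uM tetraoctylammonium bromide (100%). LYMP1-001 lymphoblastoid cells, 2500/well, 16 hr compound at 37 C; dead-cell protease fluorescence, Ex/Em 485/520.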

[12] = MultiTox-Fluor Cytotoxicity Assay - LYMP1-001 - Live Cells (AID 947); note: potency is the fitted concentration of half-maximal effect
[13] = Cell Viability - LYMP1-002 - Assay at 16 hr (AID 948); note: potency is the fitted concentration of half-maximal effect
How it was run: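 LYMP1-002 human lymphoblastoid cells, 2500/well; 5 hr 37 C; cpd 16 hr 37 C; CellTiter-Glo 30 min RT; luminescence (ATP). Concentration-response, Hill-fit AC50. Pos ctrl tetraoctylammonium bromide.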

[14] = MultiTox-Fluor Cytotoxicity Assay - LYMP1-002 - Live Cells (AID 955);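 note: potency is the fitted concentration of half-maximal effect; cells exposed to compound for 16 hours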
How it was run: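 LYMP1-002 lymphoblastoid cells; 2500 cells/well; 16 hr compound exposure, 37 C; MultiTox-Fluor reagent 60 min RT; live-cell fluorescence Ex/Em=405/510; qHTS concentration-response, Hill-equation AC50; tetraoctylammonium bromide positive control.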

[15] = MultiTox-Fluor Cytotoxicity Assay - LYMP1-002 - Dead Cells (AID 960); conditions: LYMP1-002 lymphoblastoid cells, dead-cell protease fluorescence; cytotoxicity (dead cells): at 46.1 µM (top of the series); note: potency is the fitted concentration of half-maximal effect; nearly all actives have a fitted effect of over 60% in size
How it was run: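 Readout: fluorescence at 485/520 from cell-impermeant bis-AAF-R110 cleaved by proteases leaking from damaged cells. LYMP1-002 lymphoblastoid line, 16 hr compound treatment at 37 C, concentration-response in qHTS format; Hill-equation AC50 values.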

[16] = Cell Viability - LYMP1-003 - Assay at 24 hr (AID 963); note: potency is the fitted concentration of half-maximal effect
How it was run: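 CellTiter-Glo luminescence (intracellular ATP) read after 24 hr, 37 C compound exposure of 2500 LYMP1-003 human lymphoblastoid cells/well in complete medium; qHTS concentration series; AC50 via standard Hill equation.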

[17] = Cell Viability - LYMP2-004 (AID 966); note: potency is the fitted concentration of half-maximal effect; nearly all actives have a fitted effect of over 65% in size
How it was run: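 Luminescent ATP read-out (CellTiter-Glo, 30 min RT) after 24 hr compound exposure at 37 C; 2500 lymphoblastoid cells/well, complete medium. Decrease in ATP = cytotoxicity; AC50 from standard Hill model.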

[18] = Cell Viability - LYMP2-005 (AID 967); note: potency is the fitted concentration of half-maximal effect
How it was run: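 Steps: seed 2500 LYMP2-005 cells/well, incubate 5 h at 37 C, add compound, incubate 24 h at 37 C, add CellTiter-Glo, wait 30 min at RT, read luminescence. Concentration-response data fitted to Hill equation for AC50.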

[19] = Cell Viability - LYMP2-011 (AID 969);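 note: potency is the fitted concentration of half-maximal effect; cells exposed to compound for 24 hours; nearly all actives have a fitted effect of over 60% in size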
How it was run: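 Luminescent ATP read-out (CellTiter-Glo, 30 min RT) after 24 hr compound exposure at 37 C in human lymphoblastoid cells, 2500 cells/well. Decreasing ATP indicates cytotoxicity; AC50 from standard Hill fit.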

[20] = Cell Viability - LYMP2-013 (AID 970); conditions: LYMP2-013 lymphoblastoid cells viability; activity change, negative = cytotoxic: at 92.2 µM (top of the series); note: potency is the fitted concentration of half-maximal effect; nearly all actives have a fitted effect of over 55% in size
How it was run: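 CellTiter-Glo luminescence (cellular ATP) read after 30 min at RT. Cells: human lymphoblastoid line, 2500/well, 24 hr compound exposure at 37 C. Tetraoctylammonium bromide positive control; AC50 via standard Hill fit of qHTS titrations.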

[21] = Cell Viability - LYMP2-015 (AID 971); note: potency is the fitted concentration of half-maximal effect; nearly all actives have a fitted effect of over 55% in size
How it was run: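 qHTS cytotoxicity: 2500 cells/well, 5 hr 37 C, compound 24 hr 37 C, CellTiter-Glo 30 min RT, luminescence. Loss of ATP = toxicity; AC50 via standard Hill fit.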

[22] = Cell Viability - LYMP2-006 (AID 978);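 note: potency is the fitted concentration of half-maximal effect; cells exposed to compound for 24 hours; nearly all actives have a fitted effect of over 60% in size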
How it was run: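 qHTS, 1536-well; 2500 cells/well, 5 hr 37 C; cpd 24 hr 37 C; CellTiter-Glo 30 min RT; luminescence. Tetraoctylammonium bromide pos. ctrl. AC50 via Hill eqn.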
Tags give direction and shape of the fitted curve.

C=CC(=O)OCCCCCCOC(=O)C=C
inconclusive: Potency [1] 71.7 µM [single point] | Potency [3] 60 µM [partial curve] | activity change, negative = cytotoxicity [6] -62.5% | activity change, negative = cytotoxicity [7] -45.3% | caspase-3 activation [8] 30% | caspase-3 activation [9] -2.68% | caspase-3 activation [10] 55.5% | Potency [11] 50.1 µM [cytotoxic, partial curve, poor fit] | Potency [14] 25.1 µM [cytotoxic, partial curve] | Potency [16] 39.8 µM [cytotoxic, partial curve]
active: Potency [2] 21.1 µM | activity change, negative = cytotoxicity [4] -110% | Potency [5] 39.8 µM | Potency [12] 39.8 µM | Potency [13] 39.8 µM | Potency [15] 31.6 µM | Potency [17] 39.8 µM | Potency [18] 39.8 µM | Potency [19] 39.8 µM | Potency [20] 39.8 µM | Potency [21] 39.8 µM | Potency [22] 50.1 µM
